These results are taken from PMC12136788.

The other results are listed elsewhere or left out.

To fix the notation:
B1: chr16:94690093:94690094:+_ENSMUSG00000040785_ENSMUST00000117648|mus_hu|mus_mus_mus_hu_True|48_88 (ssRNA)
RNA: GGGAGUUCUACAGUCCGACGAUCGGGCUGGGAUGACGGACACACAGAUCUUCCCAGAGGGGGAAAAAGUCUUAGUCGAUACUAAUUUAAAAAGUAUAAUGAUUUUUGAAAAUCAGAUUACAUCUAUAAAAGAUGAAAAGCAAACAACAGAGGAUUGAGCAUCA
B2: chrX:71549762:71549763:+_ENSMUSG00000019087_ENSMUST00000019231|mus_mus|mus_mus_mus_hu_False|38_98 (ssRNA)
RNA: GGGAGUUCUACAGUCCGACGAUCAAACCCGUGUACUCACUCUUAACAGCACAACAUCACCAGAAAACGAUAACGACAGCCAAGCAGGACAGACAGUCAAGUAGUCUUUCCACACUCCCAAACUCAGGGAGCCCUAUAACCUUACAACAGAGGAUUGAGCAUCA
B3: chr6:38652254:38652255:-_ENSG00000124767_ENST00000373365|hu_hu|hu_hu_hu_mus_False|8_8 (ssRNA)
RNA: GGGAGUUCUACAGUCCGACGAUCCGAGAACUUCAUAGCAGGGAAGUCAAGCUUCUGCAGGAGGGUCAGUCCAAGAACCCUCGUAUAAAAAUCCAGGGACUUCUUAGGAUCCUUAAUUCUUAGCAUCGUCUGCUGCAGUAGAAACAACAGAGGAUUGAGCAUCA
B4: chr14:55655841:55655842:-_ENSG00000126787_ENST00000247191|hu_hu|FALSE|FALSE (ssRNA)
RNA: GGGAGUUCUACAGUCCGACGAUCUUCCUUAUGUCUAUUUUCUUUCUGAGACAGUGAUUUCCUAUGAGCAAUUUUAGUUCUAAUCAUUUCAGUACUUAUAUCCUUCCUGUGUCGACUGGCAAAAUGUGAUGAAGACAUCCUGAGCAACAGAGGAUUGAGCAUCA
B5: chr19:8913615:8913616:-_ENSMUSG00000071658_ENSMUST00000096259|mus_hu|mus_mus_mus_hu_False|38_98 (ssRNA)
RNA: GGGAGUUCUACAGUCCGACGAUCAGGGUACCAAAACACCCUGCCUCAAAUGGGUGCCCCACCCAGUAGGGAGUUGCAGCUGAAAGUAUCUGAUGCACUGACAGUUACUAUACGAAAGGAGGCCCCUGGGGAGGGCCAGGCCAGCAACAGAGGAUUGAGCAUCA
B6: chr13:50590013:50590014:+_ENSG00000204977_ENST00000378182|hu_hu|FALSE|FALSE (ssRNA)
RNA: GGGAGUUCUACAGUCCGACGAUCAGGUUGUUCUGUAAACACUGUAAUCCUCCCUGUUAGCAUCUCAAUUGUUUUGCUGCAAGAGCCAAACACCCUGAAAAAAGCUUGAGUGUUCCGGCUUAGGAAAUGUACCUCCACAAGAGCCAACAGAGGAUUGAGCAUCA
B7: chr2:219093484:219093485:+_ENSG00000163466_ENST00000315717|hu_mus|FALSE|FALSE (ssRNA)
RNA: GGGAGUUCUACAGUCCGACGAUCGAAUUUCAAAGAAAUACUGACCAUCACUUUUGUUUUGUCUCCAUUAGGAUUUGAAAUAUGAUAAAGGACGCCAUCAAAAUCUGCAAAUGUUACUUCUACAGCUUCUGGUUUGUUUCCGGCCAACAGAGGAUUGAGCAUCA
B8: chr2:5814250:5814251:-_ENSMUSG00000025816_ENSMUST00000102981|mus_hu|mus_mus_mus_hu_True|18_58 (ssRNA)
RNA: GGGAGUUCUACAGUCCGACGAUCUUCCUUUCCGGUUUCUGAAUUUCUGGUAGAACUGCACAGAAUGGUUUGAUAACUUCUAAAAACUUGAUGCCCAUGGCUGCUGCUGGGGAGGCCCGGCGGGCACCCGCGGCCUCGGCGCUGCAACAGAGGAUUGAGCAUCA
B9: 5264949_5266305_1826_CDS_ENSG00000029725_ENST00000262477|human|control|control (ssRNA)
RNA: GGGAGUUCUACAGUCCGACGAUCUCUCGUUUCAGCCUCCUGAAUCUGAAUUCCUUGUAACUGUUUUUCGUAAUUGGAACACAUAUCACAACGUCUACCAAGUUUAUUUCCAGCAUUAUGUACCUCUUUCUGCAAGAGAUUCCACAACAGAGGAUUGAGCAUCA
B10: chr11:4040516:4040517:+_ENSMUSG00000003581_ENSMUST00000003677|mus_hu|FALSE|FALSE (ssRNA)
RNA: GGGAGUUCUACAGUCCGACGAUCCUGAGGACCGGGGUGCAGGCAGGAAGGGUCCAUCCCCAUGUGCAGAGUCCAGCUGGGCAGCUAAUCAUCGGAGUAGCGGUUCCCCAGGACGUUGAAUUUGCACAGUGGGCAGGUCUGCUGCAACAGAGGAUUGAGCAUCA
B11: 56161274_56161766_1203_CDS_ENSG00000095015_ENST00000399503|human|control|control (ssRNA)
RNA: GGGAGUUCUACAGUCCGACGAUCCAAUGUAUGAGAAUUUGACAUGCGUGAAACAAACUUCUGGAUGGUGUUACGAGAUGGAGCUUUGAUCCUUGAGCUACGCCUACUGUGAUAUUUCUGGAACAAACUCUCAACCUCAAAAUUCAACAGAGGAUUGAGCAUCA
B12: chr1:39494564:39494565:+_ENSG00000168653_ENST00000372967|hu_hu|hu_hu_hu_mus_True|1_28 (ssRNA)
RNA: GGGAGUUCUACAGUCCGACGAUCAUGCAUUCGCCUCAUCGUUUUGUACCGAAGCAAGCACUCUUCGAAGUCAUCGAACUCUAUCUUGCACUCCUUUUUCGCCCGGGUAUAACCGAUCCCGUGUGCACACUCUAUCCAUUCUUUCAACAGAGGAUUGAGCAUCA
B13: 98507940_98508150_816_CDS_ENSG00000196367_ENST00000456197|human|control|control (ssRNA)
RNA: GGGAGUUCUACAGUCCGACGAUCUGGGAAUGAACUGAGCUUCACCAGGUGCUUUGCAUGAUGUUAUGCCCCACGUGAUUGUCUUGACACCACACACCAAGGUUUUGACCAAACUUCGACAGUCUGUGACUUGGAAUGUCUGCUCAACAGAGGAUUGAGCAUCA
B14: 118633944_118635965_963_CDS_ENSG00000110367_ENST00000264018|human|control|control (ssRNA)
RNA: GGGAGUUCUACAGUCCGACGAUCAUGAUCAACCUUUGCUACUCCUUUCUUAAUAAGAUCCAGGAUUCUCCCAGGGGUAGCAAUCACCACGUGCACUGUAUCAUCAAGCCUCAUUAUGUCAUCUCGUAAAUUGGUUCCUCCUGUCAACAGAGGAUUGAGCAUCA

In the test the target is T1, UNK ZnF1-3 (human, UniProt Q9C0B0 31-174).
T1 sequence: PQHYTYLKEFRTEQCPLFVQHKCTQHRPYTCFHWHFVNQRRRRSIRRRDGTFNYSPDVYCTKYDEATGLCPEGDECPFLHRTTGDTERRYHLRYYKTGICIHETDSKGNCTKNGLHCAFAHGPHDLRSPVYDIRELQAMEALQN
The test can be described thus: nsRBNS (natural sequence RNA bind-n-seq); RBNS binding buffer (assumed for nsRBNS): 25 mM Tris pH 7.5, 150 mM KCl, 3 mM MgCl2, 0.01% Triton X-100, 500 ug/ml BSA, 20 U/ml SUPERase-In, 4 C; UNK is unkempt and MSI1 is Musashi-1; names of the RNAs are library labels; protein concentration not given here; high values mean tight binding.
The molecule B1 came in with a binding signal of 1.28 enrichment R.

With B2, the binding signal came out at 1.46 enrichment R.

On to B3, for which the binding signal was found to be 0.931 enrichment R.

Take B4: the binding signal came out at 0.815 enrichment R.

In the case of B5, the binding signal came to 1.39 enrichment R.

B6 yielded a binding signal of 1.22 enrichment R.

With B7, the binding signal worked out at 1.54 enrichment R.

In turn, B8 gave a binding signal of 0.897 enrichment R.

B9 returned a binding signal of 0.677 enrichment R.

For the molecule B10, the binding signal came out at 1.09 enrichment R.

B11 showed a binding signal of 1.28 enrichment R.

Take B12: the binding signal was 0.59 enrichment R.

Molecule B13 showed a binding signal of 0.827 enrichment R.

With B14, the binding signal was 0.941 enrichment R.
